According to PubChem BioAssay (Tox21):
This list was built around the results that the source calls inconclusive (neither active nor inactive); the mix of calls is not that of the screen. Where the call is inconclusive, the potency comes from a doubtful curve fit. The source made the active and inactive calls. Calls come from the whole dose curve; as a rule, active = well fitted inhibition curve with a large enough effect in the repeat runs; inconclusive = weak or mixed curves, or effect the other way; inactive = no such curve, though single readings can be large or run the other way.

Target: Androgen receptor (Homo sapiens) (UniProt P10275)
Experiment: qHTS assay to identify small molecule antagonists of the androgen receptor (AR) signaling pathway using the MDA cell line (AID 743042; note: nearly all actives have a fitted effect of over 55% in size)
Conditions: MDA-kb2 AR-luc, MMTV luciferase, R1881 antagonist, 16 h; series mostly up to 70.3 µM
Summary of the method: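 Antagonist mode: compounds plus R1881 agonist added to MDA-kb2 AR-luc cells, incubated 16 h at 37C. Luciferase reporter luminescence quantified, with multiplexed CellTiter-Fluor readout for cell viability.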
Potency is the fitted concentration of half-maximal effect; tags give direction and shape of the fitted curve.

Sequence of UniProt P10275 (P10275 whole entry, looked up): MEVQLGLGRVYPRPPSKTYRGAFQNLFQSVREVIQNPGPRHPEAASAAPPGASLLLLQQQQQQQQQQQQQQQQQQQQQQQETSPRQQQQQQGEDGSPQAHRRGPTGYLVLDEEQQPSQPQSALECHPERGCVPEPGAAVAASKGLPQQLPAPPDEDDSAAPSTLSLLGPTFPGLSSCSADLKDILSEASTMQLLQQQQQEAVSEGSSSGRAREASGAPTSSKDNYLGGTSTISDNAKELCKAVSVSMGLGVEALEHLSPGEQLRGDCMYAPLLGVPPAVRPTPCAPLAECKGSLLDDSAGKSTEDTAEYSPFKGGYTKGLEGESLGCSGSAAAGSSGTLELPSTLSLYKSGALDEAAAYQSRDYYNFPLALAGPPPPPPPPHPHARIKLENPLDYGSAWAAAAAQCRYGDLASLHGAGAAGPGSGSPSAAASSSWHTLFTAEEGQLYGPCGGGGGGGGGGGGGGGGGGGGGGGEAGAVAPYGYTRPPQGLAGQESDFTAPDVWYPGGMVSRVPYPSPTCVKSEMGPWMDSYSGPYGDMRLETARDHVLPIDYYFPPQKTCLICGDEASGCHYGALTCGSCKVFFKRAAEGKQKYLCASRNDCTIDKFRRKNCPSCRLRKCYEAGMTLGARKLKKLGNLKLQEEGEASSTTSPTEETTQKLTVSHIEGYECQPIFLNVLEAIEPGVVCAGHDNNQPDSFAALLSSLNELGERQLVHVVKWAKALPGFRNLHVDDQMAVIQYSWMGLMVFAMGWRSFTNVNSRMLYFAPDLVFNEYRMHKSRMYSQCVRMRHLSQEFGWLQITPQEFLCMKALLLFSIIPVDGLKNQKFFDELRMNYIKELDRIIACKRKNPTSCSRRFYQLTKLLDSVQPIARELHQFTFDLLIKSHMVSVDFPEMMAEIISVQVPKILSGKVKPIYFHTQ

| Structure (SMILES) | Potency |
| --- | --- |
| CCCCCCCCCCCCCCCCC(C(=O)O)C(O)(CC(=O)O)C(=O)O (stereo not drawn) | inactive |
| CC/C(=C(\c1ccc(O)cc1)c1ccc(OCCN(C)C)cc1)c1ccccc1 | inconclusive: 43.4 µM [inhibitor, partial curve, poor fit] |
| CCc1ccc(O)cc1 | inactive |
| Cc1oc(-c2ccccc2)nc1CCOc1ccc(C[C@H](Nc2ccccc2C(=O)c2ccccc2)C(=O)O)cc1 | inconclusive: 77 µM [inhibitor, single point] |
| O=C(CCCCCCCCc1cccnc1)N1CCC(C=C(c2ccccc2)c2ccccc2)CC1 | inactive |
| CCCSS/C(CCO)=C(\C)N(C=O)Cc1cnc(C)nc1N | inconclusive: 29.8 µM [inhibitor, partial curve] |
| CCCN(CCC)C(=O)C(CCC(=O)OCCCN1CCN(CCOC(=O)Cc2c(C)n(C(=O)c3ccc(Cl)cc3)c3ccc(OC)cc23)CC1)NC(=O)c1ccccc1 (stereo not drawn) | inconclusive: 33.5 µM [inhibitor, single point] |
| CCOC(=O)C1=C(C)NC(C)=C(C(=O)OCC)C1c1ccccc1/C=C/C(=O)OC(C)(C)C | inconclusive: 11.9 µM [inhibitor, partial curve] |
